Data: paper PMC12136788
The other results are listed elsewhere or left out.

T1: UNK ZnF1-3 (human, UniProt Q9C0B0 31-174)
T1 sequence: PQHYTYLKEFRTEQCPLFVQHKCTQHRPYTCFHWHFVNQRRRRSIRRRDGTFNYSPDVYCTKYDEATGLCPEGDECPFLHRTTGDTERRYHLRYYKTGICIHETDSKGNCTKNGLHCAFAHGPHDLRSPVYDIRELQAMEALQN

B1: chr7:98534794:98534795:+_ENSG00000196367_ENST00000456197|hu_hu|FALSE|FALSE (ssRNA)
RNA: GGGAGUUCUACAGUCCGACGAUCUCAGGGCUUUGAAGAGUGCAGCGAUGAUUUUCUCCCUGGACUGAGGAAGGUAAUUGCAGGCAGCAAGUGCAUUUAAUGCCGCAAUUCGUAAAGGUACGAGUGACGGAAGGCUUUUAUAACCAACAGAGGAUUGAGCAUCA
B2: chr22:32894248:32894249:+_ENSG00000100225_ENST00000397426|hu_mus|FALSE|FALSE (ssRNA)
RNA: GGGAGUUCUACAGUCCGACGAUCAGGCAGUAUCGGCCUCUCAUCAUAUUCACCACCAAUGAUUCCUGGAGGAAGCAGCGAGGUGGGAAGGUAGGCCCUGGGGUAGACGGGAAUGGGACAAAAUGGGAUAGGGUGGGCUGAUGGCAACAGAGGAUUGAGCAUCA
B3: chr1:163112212:163112213:-_ENSG00000143248_ENST00000313961|hu_hu|hu_hu_hu_mus_False|28_48 (ssRNA)
RNA: GGGAGUUCUACAGUCCGACGAUCUUUUAUUAUCAGUAAGAGUGAGUUACAUACUAGGCAAAGUAUUGGAUACAAUAAUCAGGAAACAAACACAAUUGGUCCAGAAUUUAAAAUAUAAUGAGCGAAGUGCUGGCACAGGACUUACAACAGAGGAUUGAGCAUCA
B4: chr7:141438946:141438947:+_ENSG00000106028_ENST00000265304|hu_hu|FALSE|FALSE (ssRNA)
RNA: GGGAGUUCUACAGUCCGACGAUCAAGUACCUGUAAUACAGGUCUUCGAAACAUGGCUUCUAUUUUCUUUUCUUACAGUCUAAUCUUUAGGCUUUUCCUGACGAUCUAACCCGAGCAGCCCAGCCACGCAGGGGAUCACUUCCGCAACAGAGGAUUGAGCAUCA
B5: chr7:150710151:150710152:-_ENSMUSG00000059119_ENSMUST00000072727|mus_mus|FALSE|FALSE (ssRNA)
RNA: GGGAGUUCUACAGUCCGACGAUCGACAGCCCGUGGCACGAUGCGCUCACGAAAAAAGUGCCCAAUUUCAAAGUCAGAGGCUAAGGUGAACUCGGAAUCUUCAUCCAGAGAUUCUCCAUCUCCAGAGGCUUUCAGGGGGCUGAACAACAGAGGAUUGAGCAUCA
B6: chr17:65740002:65740003:+_ENSG00000130935_ENST00000581375|hu_hu|hu_hu_hu_mus_False|28_108 (ssRNA)
RNA: GGGAGUUCUACAGUCCGACGAUCAACCCGUUCUUGCUCCCUGGACGAACAGGAAGAUUCAUAUUAAAAAAAAUAUAUAUCCAUCAAGUUAGGUGUGGUGGCCACACAGAGCUCCAGAGCACUUUGGGAGGUGGAUCUCUGAGUCAACAGAGGAUUGAGCAUCA
B7: 7811237_7811739_5290_CDS_ENSG00000170004_ENST00000380358|human|control|control (ssRNA)
RNA: GGGAGUUCUACAGUCCGACGAUCCUGCCACAGUGUGUGAAGCUCUGUGAAGCCACCAUCGGCGAUAUUGAACAUGAACCGGGGCUUCUCUGUCUUUUCCUCUCGUCGCCCAUUGGACCGUGGCUCAUCUCGAGGCCCUGGUCGCAACAGAGGAUUGAGCAUCA
B8: chr11:76780297:76780298:+_ENSMUSG00000020840_ENSMUST00000021197|mus_mus|motif|central (ssRNA)
RNA: GGGAGUUCUACAGUCCGACGAUCGAAGUCAAUGGGCUGGUUGUUAUACAGCGUUUUUCUCCCUCCAACCAUAUUGCUCAAGUAGUCGGCUGUGUACAAUUUAUUGUACUUGUGCUGGGGCCGUGGGUCAUUCACAAAACAAAUCAACAGAGGAUUGAGCAUCA
B9: chr22:19452774:19452775:-_ENSG00000070010_ENST00000399523|hu_hu|hu_hu_hu_mus_False|1_88 (ssRNA)
RNA: GGGAGUUCUACAGUCCGACGAUCCUUCUCAUUGUAGUUGAUAGCAAUCACAUCCCCAGUCGUCAGACAGGCGAAGUUUCUCAAUGCAUUUUCUAAUACCGCUUUAGGGUUGGUAAUAUCCAGGAAGUCUGGGCUCUGAGGUUGCAACAGAGGAUUGAGCAUCA
B10: chrX:41000244:41000245:+_ENSG00000124486_ENST00000378308|hu_mus|FALSE|FALSE (ssRNA)
RNA: GGGAGUUCUACAGUCCGACGAUCUGCUUCUUUCUUCAGCUCUUCAUCAGUUAAGUUUUCUAAAAACUGUGGAACCAUUUCUAUUAUUGGAAGAAAGUACUUUUUCACUGUGUGAAGAGUAAGAAACUCAUAGCACUGUCCAAACAACAGAGGAUUGAGCAUCA
B11: chr17:64801638:64801639:+_ENSG00000154229_ENST00000413366|hu_mus|hu_hu_hu_mus_False|1_58 (ssRNA)
RNA: GGGAGUUCUACAGUCCGACGAUCUAUAUAUAUAUAUACAUAUGUACACAUAUAUAGUAAAACCCUAGUUAAACGUGUAAACUAGCCAUUCAUUUUUAAAAUUACAUCUACAUUAAAAAAUUAAUAUAUCUGAUAGAGUGCCCACAACAGAGGAUUGAGCAUCA
B12: chr14:17255229:17255230:+_ENSMUSG00000017485_ENSMUST00000017629|mus_mus|motif|central (ssRNA)
RNA: GGGAGUUCUACAGUCCGACGAUCAACAAAUUCAUCUUCCCCAUCAUUUGUUAUGGGAGAUGCUUUAACUUUCAGUUCUUCGGAAUCAUUACUGUCAUCAGCAGCAGCAGCAUCAUCAUCCUCCUCUUCUGAGAAAUCAAAAGUCAACAGAGGAUUGAGCAUCA
B13: chr18:9859796:9859797:+_ENSG00000168461_ENST00000578921|hu_mus|FALSE|FALSE (ssRNA)
RNA: GGGAGUUCUACAGUCCGACGAUCGUCCAGCUGUGCAUCUCUGAUCUCCCUCAGAAAACUAAUAAAGACUUACUUCCAAAGCCAGCUAAGCGCUAACCUCCUAUUAUAGCCUUUGCCUUUUGGUGAACUGGCCAGAAAGGAAGGCAACAGAGGAUUGAGCAUCA
B14: chr18:56819859:56819860:+_ENSG00000166562_ENST00000588875|hu_mus|hu_hu_hu_mus_True|18_108 (ssRNA)
RNA: GGGAGUUCUACAGUCCGACGAUCAACUUUGAUUACUCUGUGAACUAUCGGAAUGUCUCUUCCUUCAACCUUAAAAACAACUAUUUCACCAGCUCUGAUGGGGUCCUCCCGGAAAUUUGUGAGGAACAGCAGAUCUCCUCUGUGCAACAGAGGAUUGAGCAUCA
B15: chr3:167437968:167437969:-_ENSG00000114209_ENST00000497056|hu_mus|motif|central (ssRNA)
RNA: GGGAGUUCUACAGUCCGACGAUCUUCAUCUCUUCCAUUGUCAUCCUCAUUCAAAAGCCAACUACAGUAGAAAAAGCAAUGCGGAAAUGCAGAGGAAUCUUCAUUCACUGCCGAAUUUCUUCCCUUUUUUAUGUGUAUGUGAUACAACAGAGGAUUGAGCAUCA
B16: chr1:46159212:46159213:+_ENSG00000159596_ENST00000372025|hu_mus|hu_hu_hu_mus_True|98_108 (ssRNA)
RNA: GGGAGUUCUACAGUCCGACGAUCUCUGAUCCCACCCAAGAAAGAUAGGAAACCGGCUCCAUAAGCCAUCUGAGUGAAAGCUAGGACGGGGAUAUAAGACUUUGUUAUUACCAUGAGAAGUGGGGGAGCAGUAAAGGGGAUUAACAACAGAGGAUUGAGCAUCA
B17: 176637606_176637726_2311_3pUTR_ENSG00000165671_ENST00000439151|human|control|control (ssRNA)
RNA: GGGAGUUCUACAGUCCGACGAUCCUUGAUUUGCUGCCCCACCCUUUAUUAACGAGUUCUCACUGGAUAUGCUUGAUGACAGGUUGAAUUUUGGAGAGAGAGCAUCAUUUGUAAAAUCUGACUGGGGUUUGUGAACAAGAGUAGCAACAGAGGAUUGAGCAUCA
B18: chr3:196089228:196089229:-_ENSG00000163960_ENST00000296328|hu_hu|motif|central (ssRNA)
RNA: GGGAGUUCUACAGUCCGACGAUCUUCCCUUUUUCCAUCUGGAUACCGCAACAUCAGCUGUGCUUUUGGUCCAUUUACAUCGGUCCCCUCCACUACUCCAUCUGCUUUUUCAGGUGGCAUCUCCAGUAUCUCUGAAUCCACAGCCAACAGAGGAUUGAGCAUCA
B19: chr2:38870607:38870608:+_ENSMUSG00000026755_ENSMUST00000090993|perfect_dup|FALSE|FALSE (ssRNA)
RNA: GGGAGUUCUACAGUCCGACGAUCUAACAGGAUUUUUUUUUAAACAGUCUUUCUUGCUGUAAGAACUCUUAUAAUGGAGCCUAGUCCUCCUACAGCUAAGGCCUUUUCAUGCCACUGGAGUAGCACUGCACUGCUAUUUUCUGUCAACAGAGGAUUGAGCAUCA
B20: 98611581_98611701_1167_3pUTR_ENSMUSG00000031310_ENSMUST00000121520|mouse|control|control (ssRNA)
RNA: GGGAGUUCUACAGUCCGACGAUCGCUGAGGCAACCCCUUGCGCUGAUAGGCCGUCUGCCCCUUCUGCAGUGGUGUCCGGCAAUGUGCACAAGACAUCUUGGUGCCCAUUGAAGAGCGCCCAGCCCUUUGUGCCAUACUUGAGCCAACAGAGGAUUGAGCAUCA
B21: chr6:53132721:53132722:-_ENSG00000012660_ENST00000304434|hu_hu|motif|central (ssRNA)
RNA: GGGAGUUCUACAGUCCGACGAUCUUACCUGUUUGACCACUGCCUCAAAUGUGUGAGAUGUGAUUUUAUGAUAAGCAGUCGGUUAUUUUUAAACAAGAGGUUCUAAACACAUCUUUAGAUUCUAAGCAGAAAGAAAUUACAAGUCAACAGAGGAUUGAGCAUCA
B22: chr5:4806066:4806067:-_ENSMUSG00000028926_ENSMUST00000030763|mus_mus|motif|central (ssRNA)
RNA: GGGAGUUCUACAGUCCGACGAUCUCACCCUGUCUUUGUUUUCCAUGUUUAUUUCUCUACCUGCUCAGAAACAGUCAGGCGGUUGAAAUAGCAAGUGGAUUUUGGUCUCCUGUGUAAAUGUGUGCUCAUUUCCAAUAAAAAACGCAACAGAGGAUUGAGCAUCA

Target: T1, UNK ZnF1-3
Assay: nsRBNS (natural sequence RNA bind-n-seq); RBNS binding buffer (assumed for nsRBNS): 25 mM Tris pH 7.5, 150 mM KCl, 3 mM MgCl2, 0.01% Triton X-100, 500 ug/ml BSA, 20 U/ml SUPERase-In, 4 C; UNK is unkempt and MSI1 is Musashi-1; names of the RNAs are library labels; protein concentration not given here; high values mean tight binding

Binder | binding signal [enrichment R]
B1 | 1.34
B2 | 1.6
B3 | 1.93
B4 | 0.777
B5 | 1.2
B6 | 1.51
B7 | 0.657
B8 | 0.66
B9 | 0.802
B10 | 0.713
B11 | 0.891
B12 | 1.18
B13 | 1.27
B14 | 0.738
B15 | 1.32
B16 | 1.52
B17 | 2.28
B18 | 0.863
B19 | 0.657
B20 | 0.705
B21 | 1.36
B22 | 1.14
